Measurements: PubChem BioAssay AID463173 (ICCB-Longwood Screening Facility, Harvard Medical School, 2010)
Among all 52,000 compounds or so, about 1,700 (3.3%) were called active. No stated cut-off is given here; in the data, active means survival mostly below about 52% (no sharp cut-off); inactive means mostly above about 56%. The list shows a part of the results.

tested on: Wild type; experiment: growth inhibition of S. aureus wild type versus tarO mutant, primary screen, teichoic acid synthesis inhibitors, RN4220, OD600 (AID 463173); conditions: S. aureus RN4220 wild type/DeltatarO growth, OD600, 18 h, hits give low values, screened at 18.75 µg/mL (by protocol)

Which survival does the source give for `CCOC(=O)c1c(-c2ccc(C)cc2)csc1NC(=O)c1cc(=O)c2cc(C)c(C)cc2o1` here?
Its survival is inactive: 92%.

Which survival does the source give for `O=C(NCc1cccs1)c1ccc(CSc2nc3ccncc3n2Cc2cccc(F)c2)cc1` here?
Its survival is inactive: 77%.

How did the survival turn out when `Cc1ccc(NC(=O)C2CCN(c3nc4ccccc4[nH]3)CC2)cc1Cl` was run?
The survival was inactive: 75%.

For `NC(=O)c1cc(Cl)nc2ccccc12`, which survival is on record?
The survival was inactive: 109%.

For `O=C(O)C1CCCN1C(=O)/C=C/c1ccco1` (centres undefined), which survival is on record?
The survival was inactive: 100%.

For `O=c1[nH]c2ccccc2c(O)c1C1=NS(=O)(=O)c2ccccc2N1`, which survival is on record?
The survival was inactive: 113%.

For `O=C(NC1(C(F)(F)F)NC(=O)N(CCc2ccccc2)C1=O)c1ccccc1F` (centres undefined), which survival is on record?
The survival was inactive: 80%.

How did the survival turn out when `COc1cccc(CSc2nc3cc(OC)c(OC)cc3c3nc(CCn4nc(C)cc4C)nn23)c1` was run?
Its survival is inactive: 90%.

With `CCOc1ccc2nc(N(Cc3cccnc3)C(=O)c3ccc4c(c3)OCCO4)sc2c1` as the compound, how does the survival read?
The survival was inactive: 72%.

With `COC(=O)c1cc2sc(C)cc2n1Cc1ccc(F)cc1Cl` as the compound, how does the survival read?
Its survival is inactive: 65%.

`Cc1ccc(NC(=O)CCc2c(C)nn(-c3ccc(N4CCCCC4)nn3)c2C)cc1F` was tested. Which survival did it give?
The survival was inactive: 146%.

For `Nc1nc(NC(=S)Nc2ccccc2)cc(=O)[nH]1`, which survival is on record?
The survival was inactive: 103%.

Which survival does the source give for `COc1ccccc1CNC(=O)Cn1c(=O)ccc2cc(S(=O)(=O)N3CCC(C)CC3)ccc21` here?
The survival was inactive: 82%.

With `O=S(=O)(c1ccc(Cl)cc1)c1nc(-c2ccccc2Br)oc1N1CCOCC1` as the compound, how does the survival read?
Its survival is inactive: 75%.

Which survival does the source give for `COC(=O)c1c(C)oc2c1cc(NS(=O)(=O)c1c(C)cc(C)cc1C)c1ccccc12` here?
The survival was active: 25%.

Which survival does the source give for `Cc1ccc(CCNC(=O)c2nnc(Cc3cccc(F)c3)o2)cc1` here?
The survival was inactive: 88%.

For `O=c1n(Cc2ccc(F)cc2Cl)c2ccccc2c2nc(-c3ccccc3)nn12`, which survival is on record?
The survival was inactive: 140%.

Which survival does the source give for `COc1ccc2c(c1)CCc1c(C(=O)Nc3c(C)nn(Cc4ccccc4Cl)c3C)noc1-2` here?
The survival was inactive: 47%.

With `CCCCN(CC)CCCNC(=O)c1cn(CC(C)C)c(=O)c2c1c1ccccc1n2C` as the compound, how does the survival read?
The survival was inactive: 91%.

With `Cn1c(=O)c2c(nc(NCCc3ccccc3)n2Cc2cccc(Br)c2)n(C)c1=O` as the compound, how does the survival read?
Its survival is inactive: 73%.

How did the survival turn out when `CC(C)Oc1ccc(C(=O)Nc2ccc3oc(-c4ccncc4)nc3c2)cc1` was run?
Its survival is inactive: 132%.

With `COc1ccc(S(=O)(=O)NCC(c2cccs2)S(=O)(=O)c2ccc(C)cc2)cc1F` (centres undefined) as the compound, how does the survival read?
The survival was inactive: 73%.

`Cc1[nH]c2ccc(F)cc2c1CCNC(=O)c1cc2cc(Cl)ccc2oc1=O` was tested. Which survival did it give?
Its survival is inactive: 83%.

`CC1Cc2ccccc2N1S(=O)(=O)c1nnc(NC(=O)c2ccccc2Br)s1` (centres undefined) was tested. Which survival did it give?
Its survival is inactive: 36%.

Which survival does the source give for `COc1ccc(-c2cn3nc(N4CCCC(C(=O)Nc5ccc(Cl)cc5C)C4)sc3n2)cc1` (centres undefined) here?
Its survival is inactive: 77%.

Which survival does the source give for `COc1cc(NC(=O)C(NC(=O)C2CCC(C)CC2)C(C)C)cc(OC)c1OC` (centres undefined) here?
Its survival is inactive: 92%.

With `COCCn1c(CNC(=O)c2cc([N+](=O)[O-])ccc2Cl)nc2cccnc21` as the compound, how does the survival read?
Its survival is inactive: 72%.

`COc1ccc2nc(SCc3nnc(-c4ccccc4)o3)c(C#N)cc2c1` was tested. Which survival did it give?
The survival was inactive: 111%.

`COc1ccc(Cl)cc1NS(=O)(=O)c1c(C)nc2scc(C)n2c1=O` was tested. Which survival did it give?
The survival was inactive: 89%.

For `COc1ccc(C(=O)Nc2onc3c2CCCC3)cc1`, which survival is on record?
Its survival is inactive: 75%.

Which survival does the source give for `COCCCn1c(=N)c(C(=O)NC2CCCCC2)cc2c(=O)n3ccccc3nc21` here?
The survival was inactive: 78%.

For `COc1ccc(NC(=O)Cn2cnc3c(nc4n3CCCCC4)c2=O)c(OC)c1`, which survival is on record?
The survival was inactive: 82%.

Which survival does the source give for `Cc1nnc(NC(=O)C(C)N2CCCC2)s1` (centres undefined) here?
Its survival is inactive: 103%.

How did the survival turn out when `CC(C)(C)c1nc(NCC2CCCO2)c2nnn(Cc3ccccc3Cl)c2n1` (centres undefined) was run?
Its survival is inactive: 119%.

Which survival does the source give for `Cc1c(CNC2CCCCCC2)c(C(=O)O)c(C)n1Cc1c(F)cccc1Cl` here?
The survival was inactive: 86%.

Which survival does the source give for `CCOC(=O)c1ccccc1NC(=O)Cc1c(C(=O)O)c(C)cn1C` here?
The survival was active: -1%.

With `CCOC(=O)c1ccc(N2C(=O)c3n[nH]c(C)c3C2c2ccc(O)c(OC)c2)cc1` (centres undefined) as the compound, how does the survival read?
Its survival is inactive: 73%.

For `COc1ccc(N2CCN(C(=O)Cn3cnc4sc(C)c(S(=O)(=O)N5CCC(C)CC5)c4c3=O)CC2)cc1`, which survival is on record?
Its survival is inactive: 152%.

Which survival does the source give for `Cc1cccc(CS(=O)(=O)CC2Nc3ccc(C(=O)NCc4ccccc4)cc3NC2=O)c1` (centres undefined) here?
Its survival is inactive: 71%.

For `Cc1ccc(-n2ncc(C(=O)N3CCN(c4ccccn4)CC3)c2C2CCN(C(=O)OC(C)(C)C)CC2)cc1C`, which survival is on record?
The survival was inactive: 59%.

Which survival does the source give for `Cc1cc(=O)oc2c3c(ccc12)OCN(Cc1ccccc1Cl)C3` here?
The survival was inactive: 83%.

How did the survival turn out when `CCOC(=O)c1nc(Nc2ccc(OC)cc2)c2ccccc2n1` was run?
The survival was inactive: 143%.

`Nc1ccc2nc(SCCOc3ccccc3)sc2c1` was tested. Which survival did it give?
Its survival is inactive: 108%.

With `O=S(=O)(NCc1ccc(F)cc1)c1ccc2[nH]c3c(c2c1)CCCCC3` as the compound, how does the survival read?
The survival was inactive: 55%.

How did the survival turn out when `Cc1ccccc1Nc1c(-c2cccc(O)c2)nc2ccc(Br)cn12` was run?
Its survival is inactive: 75%.

With `CC(C)CCNC(=O)c1ccc(Cn2c(=O)c3cccn3c3cccnc32)cc1` as the compound, how does the survival read?
Its survival is inactive: 87%.

With `Cc1cccc(Nc2nc(Nc3cccc(C)c3)nc(N3CCOCC3)n2)c1` as the compound, how does the survival read?
Its survival is inactive: 31%.

`Cc1cc2c(n1-c1ccc(C(=O)NCC(C)c3ccccc3)cc1)CCCC2` (centres undefined) was tested. Which survival did it give?
Its survival is inactive: 77%.

`CCOc1ccc(CNC(=O)c2ccc3c(c2)sc2nc(-c4ccc(OC)cc4)cn23)cc1` was tested. Which survival did it give?
The survival was inactive: 103%.

With `COc1cc(OC)c(NC(=O)CSC2=Nc3ccccc3N=C(c3ccc(F)cc3)C2)cc1Cl` as the compound, how does the survival read?
The survival was inactive: 65%.

Which survival does the source give for `Cc1ccc(-c2nn(-c3cccc([N+](=O)[O-])c3)c3c2cnc2ccc(F)cc23)cc1` here?
The survival was inactive: 63%.

Which survival does the source give for `Cc1sc(C2C(C#N)=C(N)N(c3cccc(Cl)c3)C3=C2C(=O)CCC3)cc1CN1CCOCC1` (centres undefined) here?
The survival was inactive: 101%.

With `Cc1ccc(CNC(=O)c2cc(S(=O)(=O)N3CCCC(C)C3)cn2C)cc1` (centres undefined) as the compound, how does the survival read?
Its survival is inactive: 128%.

Which survival does the source give for `CCN(CCCNC(=O)c1ccc(Sc2ccc(C)cc2)c(NC(C)=O)c1)c1cccc(C)c1` here?
Its survival is inactive: 71%.

How did the survival turn out when `COc1ccc(-n2c(=O)c3c(c4cc(OC)ccc4n3C)n(CC(=O)NCC3CCCO3)c2=O)cc1` (centres undefined) was run?
The survival was inactive: 83%.

For `COc1ccc(-c2n[nH]c3c2C(c2ccc(Cl)cc2Cl)NC3=O)cc1` (centres undefined), which survival is on record?
The survival was active: 0%.

How did the survival turn out when `CC(CCO)Nc1nc2c(c(=O)n(C)c(=O)n2C)n1Cc1ccc(Br)cc1` (centres undefined) was run?
Its survival is inactive: 133%.

With `Cc1ccc(F)cc1NC(=O)CCc1c(C)nn(-c2ccc(N3CCCCC3)nn2)c1C` as the compound, how does the survival read?
The survival was inactive: 66%.

How did the survival turn out when `CCOc1cccc(C(=O)Nc2ccc3oc(-c4ccc(C(C)(C)C)cc4)nc3c2)c1` was run?
The survival was inactive: 60%.

With `COc1ccc(NC(=O)Cn2c(=O)n(-c3cccc(C)c3)c(=O)c3c2c2cc(C)ccc2n3C)cc1OC` as the compound, how does the survival read?
The survival was inactive: 85%.

For `Cc1ccc2oc(-c3ccc(C)c(NC(=O)c4ccc5c(c4)OCCO5)c3)nc2c1`, which survival is on record?
The survival was inactive: 77%.

`Cc1ccc(S(=O)(=O)Nc2ccc(-c3ccc(N4CCCCCC4)nn3)cc2)cc1C` was tested. Which survival did it give?
Its survival is inactive: 131%.

`C=CCNC(=O)c1c(O)c2cccc3c2n(c1=O)CCC3` was tested. Which survival did it give?
Its survival is inactive: 102%.

Which survival does the source give for `C#CCSc1nc2sc3c(c2c(=O)n1-c1cccc(OC)c1)CCN(C(C)=O)C3` here?
Its survival is inactive: 58%.

Which survival does the source give for `CC(C(=O)O)N1C(=O)NC2NC(=O)NC21` (centres undefined) here?
Its survival is inactive: 107%.

`CCc1nn2c(-c3ccco3)ccnc2c1-c1ccc(F)cc1` was tested. Which survival did it give?
Its survival is inactive: 71%.

With `CCOC(=O)c1ccc(-c2ccc(/C=C(\C#N)C(=O)Nc3c(C)cccc3Cl)o2)cc1` as the compound, how does the survival read?
Its survival is inactive: 83%.

With `COc1cc(Cl)c(NC(=O)c2cc(S(=O)(=O)N3CCOCC3)cn2C)c(OC)c1` as the compound, how does the survival read?
The survival was inactive: 71%.

`CCOC(=O)C(C)ON1C(=O)c2ccccc2C1=O` (centres undefined) was tested. Which survival did it give?
Its survival is inactive: 96%.

For `FC(F)(F)COc1nc(OCC(F)(F)F)nc(N(c2ccccc2)c2ccccc2)n1`, which survival is on record?
Its survival is inactive: 121%.

How did the survival turn out when `CC1CCN(c2ccc(-c3cccc(NS(=O)(=O)c4ccc(Cl)s4)c3)nn2)CC1` was run?
Its survival is inactive: 71%.

Which survival does the source give for `COCCn1c(SCC(=O)c2ccc(OC)cc2)nc2cc(C(=O)NC3CCCC3)ccc2c1=O` here?
The survival was inactive: 83%.

How did the survival turn out when `CCCOc1ccc(-c2nonc2NC(=O)COc2ccc(C)cc2)cc1OCCC` was run?
Its survival is inactive: 116%.

`CC(C)(C)NC(=O)Cn1cc(S(=O)(=O)Cc2ccc(F)cc2)c2ccccc21` was tested. Which survival did it give?
Its survival is inactive: 76%.

Which survival does the source give for `CC(=O)c1c(C)oc2c(Cl)cc(NS(=O)(=O)c3cc(C)c(C)cc3C)cc12` here?
The survival was inactive: 143%.

`CCOC(=O)CNC(c1ccccc1)c1cc(Br)ccc1NC(=O)c1ccc(Cl)cc1` (centres undefined) was tested. Which survival did it give?
The survival was inactive: 69%.

With `Cc1ccc(S(=O)(=O)c2nnn(CC(=O)Nc3ccccc3C)c2N)cc1C` as the compound, how does the survival read?
The survival was inactive: 92%.

`CCC(=O)Nc1ccc2nc(SCCOc3cccc(C)c3)sc2c1` was tested. Which survival did it give?
Its survival is inactive: 116%.

For `CCCCSCc1ccc(C(=O)O)o1`, which survival is on record?
The survival was inactive: 104%.

How did the survival turn out when `O=C(CCC1N=C2c3ccccc3N=C(SCc3ccccc3Cl)N2C1=O)NCc1cccs1` (centres undefined) was run?
Its survival is inactive: 71%.

For `O=C(NCc1ccccc1F)C(=O)NCC(c1cccs1)S(=O)(=O)c1cccs1` (centres undefined), which survival is on record?
Its survival is inactive: 73%.

Which survival does the source give for `CC(C)Cc1ccc(S(=O)(=O)Nc2ccc3[nH]c(=O)[nH]c3c2)cc1` here?
Its survival is inactive: 92%.

With `CCOc1ccc(OCC)c(NC(=O)c2cnc3c(-c4ccccc4)c(C)nn3c2C)c1` as the compound, how does the survival read?
The survival was inactive: 63%.

Which survival does the source give for `O=c1c2oc3ccccc3c2n(Cc2cccc(Cl)c2)c(=O)n1Cc1ccc2c(c1)OCO2` here?
The survival was inactive: 92%.

With `COC(=O)c1cc2oc(C)cc2n1Cc1cccc(Cl)c1` as the compound, how does the survival read?
Its survival is active: -2%.

With `Cc1ccc(-n2c(=O)c3c(c4cc(C)ccc4n3C)n(CC(=O)NCCC3=CCCCC3)c2=O)cc1` as the compound, how does the survival read?
The survival was inactive: 66%.

How did the survival turn out when `O=C(NCc1cccc(Cl)c1)c1ccc(CS(=O)Cc2ccccc2Cl)o1` (centres undefined) was run?
The survival was inactive: 65%.

For `FC(F)(F)c1nnc2c3ccccc3nc(-c3ccccc3)n12`, which survival is on record?
Its survival is inactive: 50%.

`COc1ccccc1OCC(=O)NCC1(N2CCOCC2)CCCCC1` was tested. Which survival did it give?
The survival was inactive: 87%.
